Test results published in the supplement of paper PMC11417369.
± gives the standard deviation of the averaged measurements. The list shows a part of the results.

system: PfAP2-I AP2 domain 3 (GST-tagged); test: gcPBM binding intensity (ln(normalized median fluorescence intensity)); higher = stronger DNA binding
Method in brief: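 Alexa488 anti-GST antibody, scanned at 488 nm, detected GST-tagged P. falciparum DNA-binding domains that had been expressed in E. coli and incubated for 1 h on an Agilent 4 × 180k array. The array carried primer-extended double-stranded 36-bp intergenic genomic probes and negative controls. Binding intensity is the highest Masliner-normalised natural-log median intensity across replicate spots of either orientation of each probe.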

Row | Sequence | gcPBM binding intensity (ln)
1 | TATATATATATAATTACACACAATGTTCTATATATA [CACACA_site3235] | 9.22 ± 0.17
2 | TATTTATTTAATTACACACGAACATATAACCATTTC [CACACA_site211] | 8.04 ± 0.38
3 | ATTTCTTTGCTTTTCAAACACACAAAAGTTATTATA [CACACA_site520] | 8.09 ± 0.57
4 | GTTGAAAAAAAAAATGCACACGCATACATATAATAT [CACACA_site8117] | 8.71 ± 0.29
5 | GAATATTACATGTATTGTACAGGTAATGTTAAAAAT [XGTACX_site8274] | 7.96 ± 0.51
6 | AAAAAAAAAAAAAAAACACACATATATATTATTGTA [CACACA_site3979] | 8.65 ± 0.45
7 | TTTTTTGTATTTTTCACACACTCTCTATCTCTCTCA [CACACA_site2095] | 7.89 ± 0.65
8 | AACTTTTTTATATGCACACATAAACAAGGATATATA [CACACA_site2874] | 10.1 ± 0.49
9 | AAAAAAAAAAAAAACACACACACACCCATACACATA [CACACA_site2860] | 8.43 ± 0.6
10 | TATATATACATAAAAACATGCAATATATACACATTA [TGCATGCA_site444] | 7.71 ± 0.33
11 | TACTTCGATAATAATCGTACATATATATTGTATTTA [XGTACX_site5700] | 7.92 ± 0.46
12 | CAAAAAATACGATGTTGTACTATGTATTCCTGATGT [XGTACX_site246] | 7.45 ± 0.55
13 | TTGTTTTGCTAAAAATGTACTCTATATAAAAGCTTT [XGTACX_site4027] | 7.63 ± 0.35
14 | TATATATATTATATATGTACACATATGTGAGAATGA [XGTACX_site2992] | 8.3 ± 0.23
15 | TATCAAAATAAATGCACACAAATTGCACATATCTAT [CACACA_site1097] | 10.3 ± 0.11
16 | ATTTATATGTAGATGTGTACTTAATTGTAATGTGTT [XGTACX_site6422] | 7.9 ± 0.42
17 | CAAAAACATACCTACACACACAATATGTATAAATAA [CACACA_site7617] | 7.68 ± 0.44
18 | ATATTTATGACCGTACGTACCTAACAATACAATCAA [XGTACX_site4511] | 8.14 ± 0.37
19 | TGAATTTCAAAACAGTGTACATTAATATATATATAA [XGTACX_site7951] | 7.96 ± 0.12
20 | ATAATATATATATGTAGTACGTATATAATTTTAATA [XGTACX_site5228] | 7.83 ± 0.26
21 | AATTAAAATTTTTTTTTTTTTTTTTTTTTTCTATTA [CACACA_negctrl_site1585] | 7.22 ± 0.46
22 | AAAAATAAAAAAAACACACATACCTTATTTTTGTTC [CACACA_site2634] | 7.78 ± 0.9
23 | AAATTGATATTATATATATATATATATATATATATA [GTGCAC_negctrl_site482] | 9.14 ± 0.6

Row | Sequence | gcPBM binding intensity (ln)
24 | TATATATCCTTCTATGCATGCATATGGATAGATTTC [TGCATGCA_site58] | 7.61 ± 0.51
25 | TATATATAGAAACACACACACAAAAAAAAAAAAAAA [CACACA_site1506] | 8.03 ± 0.5
26 | ATTTAAAAAACTTTTAGCAAAAAAAAAAAATAATAA [TGCATGCA_negctrl_site191] | 7.61 ± 0.49
27 | AATATATATAATAATTGTACAATACGTATGTTATAT [XGTACX_site8745] | 8.04 ± 0.46
28 | TGTATACATAATATTTGTACATATTGTTATATATAT [XGTACX_site740] | 8.23 ± 0.76
29 | TCCTATATCACAAATGTGCACAGAAAAAAAAAATAT | 10.2 ± 0.22
30 | ATATATATATACATACGTACACACAAATATTAAAAT [XGTACX_site4007] | 9.19 ± 0.11
31 | TTATAAAAAAAAAAAAAAAAGAAAATGAATTCACGA [CACACA_negctrl_site1248] | 8.19 ± 0.3
32 | TGTTATATATTATATACATGCACAAAAGCAACACAA [TGCATGCA_site1009] | 8.71 ± 0.4
33 | TTCGACGAGAGCAAGTGTACTCTTGAATAATTTATA [XGTACX_site7613] | 7.61 ± 0.33
34 | ATTTTATTTTTTGAGTGTACTAGTTCAACAACTCCG [XGTACX_site8600] | 8 ± 0.45
35 | ATTATATATACATATACACACATACGTACATACATA [CACACA_site9194] | 8.13 ± 0.49
36 | ATTTCATACAGACACACACACAAACAAACATATATA [CACACA_site979] | 8.09 ± 0.23
37 | GTGAAGGTTTATATGTGTACATATATGTATTATATA [XGTACX_site326] | 7.78 ± 0.32
38 | GACATTTCTTGGGATACATGCATGTCCCAGAACAAA [TGCATGCA_site271] | 7.83 ± 0.7
39 | TTTAATAAATTGTGTACACAAAACATATAAATTTCG [CACACA_site5644] | 8.21 ± 0.071
40 | TTTTTTTTTTTTAATGCACACAGTGAACTTTTACTT [CACACA_site3567] | 11.3 ± 0.36
41 | ATTATCAAGACATTGCGTACTTAAAAAAAAAAAAAT [XGTACX_site6347] | 7.81 ± 0.42
42 | CATATATAATAATATTGTACATATATAATAATAATA [XGTACX_site3338] | 7.68 ± 0.33
43 | TTATTATTCATATATTCACACATTAAAATTTTTCAA [CACACA_site4243] | 7.74 ± 0.35
44 | CATAAAAATGGATACACACACATAATATATATATAT [CACACA_site3619] | 9.08 ± 0.11
45 | TAATTTTTTTTTTATTGTACTTAATATTTTTAATTT [XGTACX_site5929] | 7.62 ± 0.45
